Experimental data as given in publication PMC6919601, “Identification of Plasmodium dipeptidyl aminopeptidase allosteric inhibitors by high throughput screening” (PLoS ONE, 2019).
Values joined by “and” are separate entries in the source; they are usually repeats but may differ in a detail not shown here. Equal entries are not always repeated. Out of some 110,000 compounds screened, about 230 (0.21%) showed an effect of 50% or more. The list shows a part of the results.

What follows are molecules tested against DPAP1 (Plasmodium falciparum, UniProt Q8IIJ9) (assay: primary screen, percent inhibition; read by cleavage of a fluorogenic dipeptide substrate; higher = more effect of the substance).
DPAP1, sequence (Q8IIJ9 whole entry, looked up): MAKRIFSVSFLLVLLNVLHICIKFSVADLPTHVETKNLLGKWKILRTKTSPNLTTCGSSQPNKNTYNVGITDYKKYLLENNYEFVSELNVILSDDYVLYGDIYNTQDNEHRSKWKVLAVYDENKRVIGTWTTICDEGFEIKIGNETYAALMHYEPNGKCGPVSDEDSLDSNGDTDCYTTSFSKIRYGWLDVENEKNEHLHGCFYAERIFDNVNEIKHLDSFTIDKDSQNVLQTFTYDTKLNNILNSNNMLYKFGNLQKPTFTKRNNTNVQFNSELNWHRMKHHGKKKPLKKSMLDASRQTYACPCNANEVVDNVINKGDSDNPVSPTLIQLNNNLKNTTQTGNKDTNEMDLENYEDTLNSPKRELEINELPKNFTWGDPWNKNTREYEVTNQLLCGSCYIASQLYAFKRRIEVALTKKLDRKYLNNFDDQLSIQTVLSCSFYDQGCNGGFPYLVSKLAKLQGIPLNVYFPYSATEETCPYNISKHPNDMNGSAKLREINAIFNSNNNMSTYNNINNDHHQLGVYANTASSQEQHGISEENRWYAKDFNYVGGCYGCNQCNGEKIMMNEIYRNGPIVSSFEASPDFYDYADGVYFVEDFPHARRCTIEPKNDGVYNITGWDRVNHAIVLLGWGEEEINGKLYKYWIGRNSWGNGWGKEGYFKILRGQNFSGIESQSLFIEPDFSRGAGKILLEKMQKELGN
Design: species or system P. falciparum D10 trophozoite lysates; single well
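Note: 30 min substrate incubation versus DMSO and 10 µM JCP410 controls.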

Row | SMILES | % Inhibition @ 10 uM
1 | C#CC(CCCN(CC)CC)(OC)c1ccccc1 (stereo not drawn) | 1.24%
2 | CCNc1nc2c(O)nsc2c2c1C(c1cccnc1)C(C#N)=C(N)O2 (stereo not drawn) | 1.76%
3 | CS(=O)(=O)C1=NSC2=NC(=O)/C(=C\c3cccn3-c3ccccc3F)C(=N)N21 | 3.53%
4 | CC1=C(C(=O)Nc2ccc(C)cc2)C(c2ccccc2)NC(=O)N1C (stereo not drawn) | 2.3%
5 | CCC(C)NC(=O)c1ccc(Cl)cc1Cl (stereo not drawn) | -3.82%
6 | CCOc1ccc(C(=O)N2CCCCC2C)cc1 (stereo not drawn) | 5.82%
7 | Cc1nc2nc(N3C(=O)c4ccccc4C3=O)nn2c(O)c1C | 2.05%
8 | CC1NC2(C(=O)N(C/C=C\c3ccccc3)c3ccccc32)C2C(=O)N(c3ccccc3)C(=O)C12 (stereo not drawn) | -5.27%
9 | COc1ccc(N(CC(=O)Nc2ccc(Br)cc2)S(C)(=O)=O)cc1OC | -5.13%
10 | COc1ccc2oc(=O)cc(CN3CCN(CCO)CC3)c2c1 | 0.00706%
11 | COc1ccc(-n2c(SCC(N)=O)nnc2-c2ccc(OC)c(OC)c2)cc1 | 0.44%
12 | O=C(Cc1ccccc1)Nc1ccc(-c2nc(O)c3ccccc3n2)cc1 | 3.21%
13 | O=C1C(=Cc2ccc(CCCCc3ccccc3)cc2)C(=O)c2ccccc21 | -0.771%
14 | O=C(Cn1cc(C(=O)c2ccco2)c2ccccc21)NCCc1ccccc1 | -1.33%
15 | CCN1C(=O)/C(=C\c2ccc(C)cc2)N=C1SCC(=O)NCC1CCCCC1 | -0.68%
16 | COc1cc(OC)cc(-c2cc3nc(C)c(CCC(=O)O)c(C)n3n2)c1 | 2.39%
17 | COc1ccc(CN2CCCC(O)C2)cc1OC (stereo not drawn) | 0.605%
18 | CCCCCNC(=O)c1c(-c2ccccc2)noc1C | 4.33%
19 | CC(C)CCn1c(=O)c2ccccc2n2c(CCC(=O)NCCCN3CCCC3=O)nnc12 | 3.54%
20 | Cc1c(NC(=O)c2cc3cc(Br)ccc3oc2=O)c(=O)n(-c2ccccc2)n1C | -3.26%
21 | O=C(C1=C(N2CCCCC2)c2ccccc2S(=O)(=O)N1)c1ccccc1 | 2.01%
22 | CCCc1cc(O)n2nc(C)nc2n1 | -2.91%
23 | Cc1ccc(C)c(OCC(=O)N2CCCc3ccccc32)c1 | -3.03%
24 | N#CC1=C(N)Oc2[nH]nc(-c3ccc(F)cc3)c2C1c1ccc(N2CCOCC2)cc1 (stereo not drawn) | 2.38%
25 | COc1cc(NC(=O)c2cc(C)on2)cc(OC)c1 | 3.04%
26 | c1nc2sc3c(c2c2nnnn12)CCCC3 | -2.03%

Row | SMILES | % Inhibition @ 10 uM
27 | CCOC(=O)N1CCN(C2CCC(C)CC2)CC1 (stereo not drawn) | -1.81%
28 | Cn1c(=O)c2c(O)c(Sc3ccc(Cl)cc3)c(=O)n(C)c2n(C)c1=O | -2.24%
29 | Sc1ncnc2c1[nH]c1ccccc12 | 4.7%
30 | c1sc2c(c1CN1CCN(C3CCCCC3)CC1)CCCC2 | 8.3%
31 | O=C(NCc1ccc2c(c1)OCO2)C(Cc1ccccc1)n1cccc1 (stereo not drawn) | -7.99%
32 | CC1(C)CC2=Nc3nc(O)nc(O)c3C(c3ccc(Cl)cc3Cl)C2=C(O)C1 (stereo not drawn) | -5.96%
33 | COC(=O)C1=C(C)N(C)C(C)=C(C(=O)OC)C1c1ccc(-c2ccccc2)cc1 | 1.26%
34 | COc1ccc(/C=C2\SC(=S)N(C3CCS(=O)(=O)C3)C2=O)cc1 (stereo not drawn) | 1.83%
35 | CCOC(=O)C1=C(C)N(c2ccc(OC)cc2)C(=O)/C1=C\c1ccc(Cl)cc1 | -14.2%
36 | COc1ccc(NC(=O)CSCc2c(Cl)cccc2Cl)c(OC)c1 | 6.24%
37 | COC(C(=O)N1CCCCCC1)(c1ccccc1)c1ccccc1 | 5.37%
38 | CCOc1ccc(NS(=O)(=O)c2ccc(NC(=O)CC)cc2)cc1 | -3.06%
39 | Oc1nc2ccccc2n1C1CCNCC1 | 5.54%
40 | O=C(CN1C(=O)c2ccccc2S1(=O)=O)Nc1ccccc1C(=O)NC1CCCCC1 | -3.43%
41 | COc1cc2c(c(OC)c1OC)COC2=O | 0.962%
42 | O=C(c1ccccc1)N1CCN(C(=O)c2ccco2)CC1 | 1.7%
43 | C=CCC(c1ccccc1F)N(CCN1CCOCC1)C(=O)Nc1cccc(Cl)c1 (stereo not drawn) | -4.12%
44 | CC(C)C[C@H](NC(=O)c1cccc(-c2cccc(S(C)(=O)=O)c2)c1)C(=O)NCC#N | -0.207%
45 | Cc1cc(=O)n2ccc(CN3CCOCC3)c(O)c2n1 | 2.65% and -4.21%
46 | COc1ccc(C(=O)Nc2ccc(C(C)C)cc2)c(OC)c1 | -4.15%
47 | COc1ccc(OC)c(S(=O)(=O)c2c(C)cc(C)cc2C)c1 | -4.43%
48 | O=C(CCC(=O)N1CC=C(c2c[nH]c3ccccc23)CC1)NCCc1ccc(Cl)cc1 | 4.92%
49 | O=C(O)c1ccc2c(c1)C(=O)N(c1ccc(Cc3ccncc3)cc1)C2=O | -0.185%
50 | Cc1cc(C)n2nc(C(=O)NCc3ccccc3)cc2n1 | 0.215%
51 | Cc1c(Cl)c(C(F)(F)F)nn1CC(=O)N1CCOCC1 | 0.51%
